Common to all, as to assay type: cell-based, Clostridium difficile strain 630
Experiment [1] deals with C. difficile spores. Kind of experiment: Activation of C. difficile spore germination by taurocholate / bile salt analogs. The following applies: for activation of spore germination by taurocholate analog: in the presence of glycine, in buffer; for germination relative to taurocholate: taurocholate/glycine = 100%.
Experiment [2] deals with C. difficile spores. Kind of experiment: Inhibition of C. difficile spore germination by amino acid and taurocholate analogs. The following applies: for inhibition of taurocholate-mediated spore germination by taurocholate analog: spores treated with taurocholate and glycine; for inhibition of spore germination by amino acid analog: in the presence of taurocholate and glycine (D-alanine: L-alanine and taurocholate).

For experiment [3], the system named is C. difficile spores. The experiment can be described thus: Activation of C. difficile spore germination by amino acid analogs with taurocholate. The following applies: 12 mM analog with 6 mM taurocholate.
Where [4] appears, read: Clostridioides difficile, read-out: IC50 of inhibition of C. difficile spore germination.

Where two headings read alike, the source gives them in different places.

The values that follow come from patent USRE49949E1, “Reducing risk of contracting clostridium-difficile associated disease” (The Board of Regents of the Nevada System of Higher …, priority 2012, dated 2024).

Regarding `C[C@H](CCC(=O)NCCS(=O)O)[C@H]1CC[C@H]2[C@@H]3[C@H](O)C[C@@H]4C[C@H](O)CC[C@]4(C)[C@H]3C[C@H](O)[C@]12C` [Compound T16, 2-[(3α,7α,12α-trihydroxy-24-oxo-5β-cholan-24-yl)amino]ethanesulfinic acid], the “activation of spore germination by taurocholate analog” value (from here on “activation … by taurocholate analog”) in the experiment with C. difficile spores [1] is recorded as “unable to activate”. Also, the IC50 in the experiment with C. difficile spores [2] (setting [4]) turned out to be 0.64 mM. `C[C@H](CCC(=O)NCCS(=O)(=O)O)[C@H]1CC[C@H]2[C@@H]3[C@@H](O)C[C@@H]4C[C@H](O)CC[C@]4(C)[C@H]3CC[C@]12C` [Compound T04, tauroursodeoxycholate, reference compound]: in the experiment on C. difficile spores [1] (6 mM analog and 12 mM glycine), the “germination relative to taurocholate” value came to 3%. The “inhibition of taurocholate-mediated spore germination by taurocholate analog” value (from here on “inhibition … by taurocholate analog”) in the experiment on C. difficile spores [2] is recorded as “showed germination inhibitory properties”. `C[C@H](CCC(=O)NCCC(=O)O)[C@H]1CC[C@H]2[C@@H]3[C@H](O)C[C@@H]4C[C@H](O)CC[C@]4(C)[C@H]3C[C@H](O)[C@]12C` [Compound T18, 2-[(3α,7α,12α-trihydroxy-24-oxo-5β-cholan-24-yl)amino]ethancarboxylic acid]: the “activation … by taurocholate analog” value in the experiment on C. difficile spores [1] is “inactive”.

Regarding `CC(C)[C@H](N)C(=O)O` [Compound A20, L-valine], the “reduction of spore germination compared to L-norvaline” value in the experiment with C. difficile spores [3] was “more than 90%”.

`C[C@H](CCC(=O)NCCS(=O)(=O)O)[C@H]1CC[C@H]2[C@@H]3CC[C@@H]4C[C@H](O)CC[C@]4(C)[C@H]3C[C@H](O)[C@]12C` [Compound T02, taurodeoxycholate, reference compound]: the “reduction of germination compared with taurocholate” value in the experiment on C. difficile spores [1] (6 mM analog and 12 mM glycine) was “more than 70%”. With `C[C@H](CCC(=O)OCCS(=O)(=O)O)[C@H]1CC[C@H]2[C@@H]3[C@H](O)C[C@@H]4C[C@H](O)CC[C@]4(C)[C@H]3C[C@H](O)[C@]12C` [Compound T22, 2-[(3α,7α,12α-trihydroxy-5β-cholan-24-oyl)oxy]ethanesulfonic acid], the “activation … by taurocholate analog” value with C. difficile spores [1] is on record as “unable to trigger germination”. In addition, the IC50 in the experiment on C. difficile spores [2] (setting [4]) came out at 1.32 mM.

Take `COC1CC[C@@]2(C)[C@@H](C1)CC(O)[C@@H]1[C@@H]2CC(O)[C@]2(C)[C@@H]([C@H](C)CCC(=O)NCCS(=O)(=O)O)CC[C@@H]12` (stereo partly drawn) [Compound T09, 3-methoxy-7,12-dihydroxytaurocholate]: the “activation … by taurocholate analog” value with C. difficile spores [1] was “neither induces nor inhibits”. For the same compound, the “inhibition … by taurocholate analog” value in the experiment on C. difficile spores [2] was “neither induces nor inhibits”. `C[C@H](CCC(=O)NCCCC(=O)NCCCC(=O)O)[C@H]1CC[C@H]2[C@@H]3[C@H](O)C[C@@H]4C[C@H](O)CC[C@]4(C)[C@H]3C[C@H](O)[C@]12C` [Compound T21, 8-[(3α,7α,12α-trihydroxy-24-oxo-5β-cholan-24-yl)amino]-(5-amido)octanecarboxylic acid]: in the experiment with C. difficile spores [1], the “activation … by taurocholate analog” value is “inactive”. The IC50 in the experiment with C. difficile spores [2] (spores treated with taurocholate (6 mM) and glycine (12 mM), read-out: IC50 of inhibition of C. difficile spore germination) was ~3 mM.

Take `CO[C@@H]1CC[C@@]2(C)[C@@H](C1)C[C@@H](OC)[C@@H]1[C@@H]2C[C@H](O)[C@]2(C)[C@@H]([C@H](C)CCC(=O)NCCS(=O)(=O)O)CC[C@@H]12` [Compound T10, 3,7-dimethoxy-12-hydroxytaurocholate]: the “activation … by taurocholate analog” value in the experiment with C. difficile spores [1] was “inactive”. Moreover, the “inhibition … by taurocholate analog” value in the experiment on C. difficile spores [2] was “inactive”. Regarding `C[C@H](CCC(=O)NCCCS(=O)(=O)O)[C@H]1CC[C@H]2[C@@H]3[C@H](O)C[C@@H]4C[C@H](O)CC[C@]4(C)[C@H]3C[C@H](O)[C@]12C` [Compound T12, 3-[(3α,7α,12α-trihydroxy-24-oxo-5β-cholan-24-yl)amino]propanesulfonic acid], the “activation … by taurocholate analog” value in the experiment with C. difficile spores [1] was “does not activate germination”. In the experiment with C. difficile spores [2], the “inhibition … by taurocholate analog” value is listed as “unable to inhibit germination”.

With `C[C@H](CCC(=O)NCCC(N)CCCC(=O)O)[C@H]1CC[C@H]2[C@@H]3[C@H](O)C[C@@H]4C[C@H](O)CC[C@]4(C)[C@H]3C[C@H](O)[C@]12C` (stereo partly drawn) [Compound T19, 6-[(3α,7α,12α-trihydroxy-24-oxo-5β-cholan-24-yl)amino]-(4-amino)hexanecarboxylic acid], in the experiment with C. difficile spores [1], the “activation … by taurocholate analog” value was “inactive”. For the compound `COC(=O)CN` [Compound A05, glycine methyl ester], the “germination rate compared to glycine-triggered germination” value in the experiment with C. difficile spores [3] is “less than 10%”. `C[C@H](CCC(=O)NCCCC(=O)O)[C@H]1CC[C@H]2[C@@H]3[C@H](O)C[C@@H]4C[C@H](O)CC[C@]4(C)[C@H]3C[C@H](O)[C@]12C` [Compound T20, 3-[(3α,7α, 12α-trihydroxy-24-oxo-5β-cholan-24-yl)amino]propanecarboxylic acid]: in the experiment with C. difficile spores [1], the “activation … by taurocholate analog” value was “inactive”. Besides, the half-inhibitory concentration (IC50) with C. difficile spores [2] (setting [4]) amounted to 0.762 mM. Consider `C[C@H](CCC(=O)NCS(=O)(=O)O)[C@H]1CC[C@H]2[C@@H]3[C@H](O)C[C@@H]4C[C@H](O)CC[C@]4(C)[C@H]3C[C@H](O)[C@]12C` [Compound T11, 1-[(3α,7α,12α-trihydroxy-24-oxo-5β-cholan-24-yl)amino]methanesulfonic acid], for which the “activation … by taurocholate analog” value in the experiment with C. difficile spores [1] was “germinate to levels comparable with spores treated with taurocholate”. Further, the “inhibition … by taurocholate analog” value in the experiment on C. difficile spores [2] is reported as “unable to inhibit germination”. On to `C[C@H](CCC(=O)Nc1cccc(S(=O)(=O)O)c1)[C@H]1CC[C@H]2[C@@H]3[C@H](O)C[C@@H]4C[C@H](O)CC[C@]4(C)[C@H]3C[C@H](O)[C@]12C` [CamSA, 3-[(3α,7α,12α-trihydroxy-24-oxo-5β-cholan-24-yl)amino]benzenesulfonic acid], for which the “activation … by taurocholate analog” value in the experiment on C. difficile spores [1] is on record as “unable to activate”. Besides, the IC50 in the experiment on C. difficile spores [2] (setting [4]) was 0.0583 mM. In addition, the “active concentration relative to taurocholate” value in the experiment on C. difficile spores [2] (lower than taurocholate) is reported as “approximately 275 fold”. Besides, the “activity relative to natural inhibitor chenodeoxycholate” value with C. difficile spores [2] (more active than chenodeoxycholate) is recorded as ~4 times. For the same compound, the “inhibition … by taurocholate analog” value with C. difficile spores [2] was “strong inhibition”. As to `C[C@H](CCC(=O)NCCS(=O)(=O)O)[C@H]1CC[C@H]2[C@@H]3[C@H](O)[C@H](O)[C@@H]4C[C@H](O)CC[C@]4(C)[C@H]3CC[C@]12C` [Compound T07, taurohycholate, reference compound], in the experiment with C. difficile spores [1], the “activation … by taurocholate analog” value is given as “Neither of these compounds is able to significantly activate”. `C[C@H](CCC(=O)NCCS(=O)(=O)O)C1CC[C@H]2[C@@H]3C[C@H](O)[C@@H]4C[C@H](O)CC[C@]4(C)[C@H]3CC[C@]12C` (stereo partly drawn) [Compound T08, taurohyodeoxycholate, reference compound]: the “activation … by taurocholate analog” value in the experiment with C. difficile spores [1] is recorded as “Neither of these compounds is able to significantly activate”. For the same compound, the “inhibition … by taurocholate analog” value in the experiment on C. difficile spores [2] is “showed germination inhibitory properties”. As for `C[C@H](CCC(=O)NCCS(=O)(=O)O)[C@H]1CC[C@H]2[C@@H]3CC[C@@H]4C[C@H](O)CC[C@]4(C)[C@H]3CC[C@]12C` [Compound T05, taurolithocholate, reference compound], the “activation … by taurocholate analog” value with C. difficile spores [1] is given as “unable to activate germination”.

Turning to `C[C@H](CCC(=O)Nc1ccc(S(=O)(=O)O)cc1)[C@H]1CC[C@H]2[C@@H]3[C@H](O)C[C@@H]4C[C@H](O)CC[C@]4(C)[C@H]3C[C@H](O)[C@]12C` [Compound T13, 4[(3α,7α,12α-trihydroxy-24-oxo-5β-cholan-24-yl)amino]benzenesulfonic acid], the “activation … by taurocholate analog” value in the experiment on C. difficile spores [1] is reported as “unable to activate”. In the experiment on C. difficile spores [2], the “inhibition … by taurocholate analog” value was “does not inhibit spore germination”. As to `C[C@H](CCC(=O)NCC(=O)O)[C@H]1CC[C@H]2[C@@H]3[C@H](O)C[C@@H]4C[C@H](O)CC[C@]4(C)[C@H]3C[C@H](O)[C@]12C` [Compound T17, 3α,7α,12α-Trihydroxy-5β-cholan-24-oic acid N-(carboxymethyl)amide, reference compound], the “activation … by taurocholate analog” value in the experiment on C. difficile spores [1] is given as “able to significantly activate”. With “taurocholanate [Compound T06, reference compound]”, the “activation … by taurocholate analog” value in the experiment on C. difficile spores [1] was “unable to activate germination”. `C[C@H](CCC(=O)NCCS(=O)(=O)O)[C@H]1CC[C@H]2[C@@H]3[C@H](O)C[C@@H]4C[C@H](O)CC[C@]4(C)[C@H]3CC[C@]12C` [Compound T03, taurochenodeoxycholate, reference compound]: in the experiment on C. difficile spores [1] (6 mM analog and 12 mM glycine), the “germination relative to taurocholate” value was determined as 10%. Further, the “inhibition … by taurocholate analog” value in the experiment on C. difficile spores [2] was “showed germination inhibitory properties”. As for `C[C@@H](N)C(=O)O` [Compound A17, D-alanine, reference compound], the “inhibition of spore germination by amino acid analog” value (from here on “inhibition … by amino acid analog”) in the experiment with C. difficile spores [2] is “unable to inhibit”. For `NCC(N)=O` [Compound A07, glycinamide, reference compound], the “inhibition … by amino acid analog” value with C. difficile spores [2] is “unable to activate or inhibit”.

Take `NCC(=O)NO` [Compound A08, glycine hydroxamate, reference compound]: in the experiment on C. difficile spores [2], the “inhibition … by amino acid analog” value is given as “unable to activate or inhibit”.

Take `C[C@H](CCC(=O)Nc1ccc(C(=O)O)cc1)[C@H]1CC[C@H]2[C@@H]3[C@H](O)C[C@@H]4C[C@H](O)CC[C@]4(C)[C@H]3C[C@H](O)[C@]12C` [Compound 25]: in the experiment with C. difficile spores [2] (spores incubated with bile salt analogs 15 min prior to 6 mM taurocholate and 12 mM glycine, NA = no change in absorbance after 90 minutes, read-out: IC50 (stdev)), the IC50 is 1.4 mM.
